Measurements published in the supplement of paper PMC7826260.
Some of the results follow. Each Rep nickase domain was tested in vitro on the same pool of single strands (3 µM enzyme, 1 h, 37 °C); shown is the middle of each 90-letter strand. Uncut reads are compared with the no-enzyme pool on a log2 scale; strong cutting gives strongly negative numbers. There is no active / inactive call. The scaling is to total reads; where an enzyme cuts many sequences, the uncut ones exceed 0.

system: T1, Rep nickase domain of tomato golden mosaic virus; assay: uncleaved DNA left, log2 of reads against the no-enzyme library (log2 ratio); higher = less cleavage (more negative = more Rep cleavage of the k-mer); sequences stand for … in CTCGTCCG…ACCGGAGA
T1 sequence (residues 1-124, tag not shown): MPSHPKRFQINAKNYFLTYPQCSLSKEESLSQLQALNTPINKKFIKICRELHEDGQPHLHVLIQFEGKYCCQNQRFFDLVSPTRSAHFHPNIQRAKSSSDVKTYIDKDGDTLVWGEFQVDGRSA
Procedure: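 A pool of 90-nt single-stranded DNAs with seven random bases just before the constant AC of the nick site (name = the seven bases) was cut by 3 µM recombinant His6-SUMO-tagged Rep nickase domain (300 nM DNA, 50 mM HEPES pH 8.0, 50 mM NaCl, 1 mM MnCl2, 1 h, 37 °C, three replicates). Uncut DNA was amplified and sequenced.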

Sequence	uncleaved DNA left (log2)
TAGGTAG	-0.0287
AAGATCC	0.00708
GGACACT	-0.155
GGGGCTT	0.0968
ACATACT	-0.0575
AACACGG	0.103
GCGGCCT	0.00398
CCCTTCG	-0.166
TCAGCTT	0.125
TTCAACC	0.03
CCAAAGT	0.0597
GAGGCTC	0.0993
GACCGTT	0.0947
ACCTTTT	-0.112
CAAAACG	0.0464
GGCTCAA	0.0478
ACGGGCG	0.0375
TACTGAT	-0.256
AATTTGA	-0.0746
AATAAAG	0.0478

Sequence	uncleaved DNA left (log2)
TGGAGGC	0.0149
CCATTCA	0.0991
AGGTACA	-0.0342
CCACGGA	-0.00201
ACCGAGA	0.169
ACCTAAG	-0.0881
GGAGGAC	-0.0636
AAAGGAT	0.0681
TTCCAGC	-0.137
GTACGCT	0.0955
GAGTTCC	0.0308
GAATGTT	-2.78
TAAGGTC	0.0103
AGTTCCC	-0.0308
AGTGCGT	0.0333
GCGATCC	-0.113
TGCTCTA	-0.0774
AATGCTG	0.0495
CTATGAC	0.0321
ATTTATA	0.0122
